Data taken from patent US20250145714A1 (GENUV, published 2025).

Key:
[1] = target: T1, IL-2Rβγ on HEK-Blue CD122/CD132 cells (InvivoGen) (UniProt P14784 27-551; P31785 23-369, limits assumed); test: cell-based or functional assay
T1 sequence (looked up) 1: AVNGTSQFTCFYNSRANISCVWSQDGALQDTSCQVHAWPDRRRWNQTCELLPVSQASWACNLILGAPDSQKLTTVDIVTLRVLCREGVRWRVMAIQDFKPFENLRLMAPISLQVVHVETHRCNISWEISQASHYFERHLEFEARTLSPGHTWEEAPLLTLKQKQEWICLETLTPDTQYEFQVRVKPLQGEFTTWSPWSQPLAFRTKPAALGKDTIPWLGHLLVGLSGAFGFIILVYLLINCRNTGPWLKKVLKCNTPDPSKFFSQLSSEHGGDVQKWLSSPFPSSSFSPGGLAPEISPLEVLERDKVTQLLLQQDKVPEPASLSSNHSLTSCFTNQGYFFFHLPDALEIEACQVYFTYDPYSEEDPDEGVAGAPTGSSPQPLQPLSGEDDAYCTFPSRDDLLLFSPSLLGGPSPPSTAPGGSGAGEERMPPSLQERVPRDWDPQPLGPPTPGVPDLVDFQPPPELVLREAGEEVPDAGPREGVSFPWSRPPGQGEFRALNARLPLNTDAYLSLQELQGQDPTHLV
T1 sequence (looked up) 2: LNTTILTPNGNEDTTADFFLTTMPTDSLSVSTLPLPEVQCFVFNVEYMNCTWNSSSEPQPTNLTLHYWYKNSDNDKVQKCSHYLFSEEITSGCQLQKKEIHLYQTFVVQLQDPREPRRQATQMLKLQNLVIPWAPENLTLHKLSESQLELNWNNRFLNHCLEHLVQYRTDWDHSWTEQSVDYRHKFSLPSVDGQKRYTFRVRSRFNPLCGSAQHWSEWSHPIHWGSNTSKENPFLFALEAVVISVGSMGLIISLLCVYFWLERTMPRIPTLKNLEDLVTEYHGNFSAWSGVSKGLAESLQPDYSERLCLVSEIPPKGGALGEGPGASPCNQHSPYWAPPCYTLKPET

[2] = target: T2, IL-2Rαβγ on HEK-Blue IL-2 cells (InvivoGen) (UniProt P01589 22-272; P14784 27-551; P31785 23-369, limits assumed); test: cell-based or functional assay
T2 sequence (looked up) 1: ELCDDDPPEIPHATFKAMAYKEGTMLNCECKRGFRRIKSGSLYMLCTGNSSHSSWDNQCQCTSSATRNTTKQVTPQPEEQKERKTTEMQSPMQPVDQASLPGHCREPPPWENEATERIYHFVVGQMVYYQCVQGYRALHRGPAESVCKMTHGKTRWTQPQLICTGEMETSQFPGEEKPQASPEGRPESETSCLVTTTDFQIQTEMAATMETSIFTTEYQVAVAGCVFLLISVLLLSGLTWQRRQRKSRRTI
T2 sequence (looked up) 2: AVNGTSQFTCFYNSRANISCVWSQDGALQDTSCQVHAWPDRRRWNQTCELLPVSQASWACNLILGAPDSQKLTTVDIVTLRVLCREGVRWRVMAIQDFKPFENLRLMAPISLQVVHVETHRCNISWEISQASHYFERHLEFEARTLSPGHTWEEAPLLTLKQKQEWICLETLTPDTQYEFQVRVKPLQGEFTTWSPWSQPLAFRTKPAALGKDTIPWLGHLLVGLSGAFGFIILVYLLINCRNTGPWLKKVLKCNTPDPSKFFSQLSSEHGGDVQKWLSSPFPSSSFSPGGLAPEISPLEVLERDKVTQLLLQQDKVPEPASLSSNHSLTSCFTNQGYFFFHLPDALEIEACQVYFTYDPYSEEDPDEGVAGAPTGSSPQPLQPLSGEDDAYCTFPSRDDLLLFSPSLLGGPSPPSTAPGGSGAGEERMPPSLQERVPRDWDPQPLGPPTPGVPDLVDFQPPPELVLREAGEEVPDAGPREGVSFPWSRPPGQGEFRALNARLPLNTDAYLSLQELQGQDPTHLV
T2 sequence (looked up) 3: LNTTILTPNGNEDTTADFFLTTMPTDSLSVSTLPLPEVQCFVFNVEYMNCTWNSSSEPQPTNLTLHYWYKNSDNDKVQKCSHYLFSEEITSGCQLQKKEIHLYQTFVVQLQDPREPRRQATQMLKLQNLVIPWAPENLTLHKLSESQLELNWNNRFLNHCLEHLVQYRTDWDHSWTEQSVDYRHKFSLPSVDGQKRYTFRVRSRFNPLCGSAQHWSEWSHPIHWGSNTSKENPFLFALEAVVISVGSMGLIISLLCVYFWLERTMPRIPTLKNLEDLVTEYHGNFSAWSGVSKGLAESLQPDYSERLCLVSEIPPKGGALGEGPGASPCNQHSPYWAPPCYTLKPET

[3] = target: T3, Human PD-1 (Acrobiosystems, Cat #PD1-H5221) (human, UniProt Q15116 fragment); test: SPR Biacore 8K, human PD-1 amine-coupled on CM5, 1:1 model, pH 6.0
T3 construct: Bought protein, immobilised on a CM5 chip; also called hPD-1
Method: (§1) Human PD-1 (Acrobiosystems, Cat #PD1-H5221) at a concentration of 1 μg/ml was immobilized on a CM5 chip (Cytiva) using an amine coupling kit (Cytiva) according to the manufacturer's instructions. […] After each experiment in each concentration cycle, the chip was regenerated with glycine at pH 1.5. At this time, the running buffer used was a pH 7.4 or pH 6.0 HBS-EP+ buffer (0.1 M HEPES, 1.5 M NaCl, 0.03 M EDTA and 0.5% v/v Surfactant P20), and the experimental proteins were diluted in the running buffer.
(§2) The analysis was performed using the 1:1 binding model in Biacore evaluation software version 3.0, and the results of the kinetic constants (ka and kd) and affinity (KD) values are shown in Table 3 below.

[4] = target: human PD-1 expressed on HEK-Blue cells (pCMV3-hPD1 vector) (human, UniProt Q15116 25-288); test: cell-based or functional assay
[5] = target: T4, IL-2Rα-His (Acrobiosystems) (UniProt P01589 22-213); test: ELISA on plate-coated IL-2Rα-His, OD450 against antibody concentration (M)
T4 construct: also called IL-2Rα protein; not shown: His tag
T4 sequence (looked up): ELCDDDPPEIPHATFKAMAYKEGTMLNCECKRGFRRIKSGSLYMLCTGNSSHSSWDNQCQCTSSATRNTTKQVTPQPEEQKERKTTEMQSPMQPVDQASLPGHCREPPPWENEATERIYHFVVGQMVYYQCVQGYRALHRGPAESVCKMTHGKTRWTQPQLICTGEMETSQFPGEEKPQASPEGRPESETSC

[6] = target: T5, IL-2Rβγ-His (Acrobiosystems) (UniProt P14784 27-239; P31785 23-262, limits assumed); test: ELISA on plate-coated IL-2Rβγ-His, OD450 against antibody concentration (M)
T5 construct: His-tagged; also called IL-2Rβγ protein
T5 sequence (looked up) 1: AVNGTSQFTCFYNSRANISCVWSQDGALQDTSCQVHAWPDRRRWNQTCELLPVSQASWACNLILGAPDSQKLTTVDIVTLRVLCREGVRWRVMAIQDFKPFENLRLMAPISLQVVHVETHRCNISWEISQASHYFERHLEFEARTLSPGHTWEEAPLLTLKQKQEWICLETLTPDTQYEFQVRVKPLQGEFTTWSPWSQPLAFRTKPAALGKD
T5 sequence (looked up) 2: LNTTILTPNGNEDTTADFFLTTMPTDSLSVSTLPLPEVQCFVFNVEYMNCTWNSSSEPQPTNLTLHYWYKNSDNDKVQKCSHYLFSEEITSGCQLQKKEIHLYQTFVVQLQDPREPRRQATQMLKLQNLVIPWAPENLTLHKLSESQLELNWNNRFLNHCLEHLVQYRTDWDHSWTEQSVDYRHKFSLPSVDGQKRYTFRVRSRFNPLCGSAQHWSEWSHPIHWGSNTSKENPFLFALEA

[7] = target: T3, Human PD-1 (Acrobiosystems, Cat …); test: SPR Biacore 8K, human PD-1 amine-coupled on CM5, 1:1 model, pH 7.4
Method: as §1, §2

B1: Fusion Protein A (other)
light: DIVMTQTPLSLSVTPGQPASISCRSSQNIVHSQGDTYLEWYLQKPGQSPQLLIYKVSKRFSGVPDRFSGSGSGTDFTLKISRVEAEDVGVYYCFQGSHVPWTFGGGTKVEIKRTVAAPSVFIFPPSDEQLKSGTASVVCLLNNFYPREAKVQWKVDNALQSGNSQESVTEQDSKDSTYSLSSTLTLSKADYEKHKVYACEVTHQGLSSPVTKSFNRGEC
heavy 1: QVQLVQSGAEVKKPGASVKVSCKASGYTFTGYWMHWVRQAPGQGLEWIGMIHPNSDTTTYNEKFKNRVTMTRDTSISTAYMELSRLRSDDTAVYYCAGTDQAAWFAFWGQGTTVTVSSASTKGPSVFPLAPCSRSTSESTAALGCLVKDYFPEPVTVSWNSGALTSGVHTFPAVLQSSGLYSLSSVVTVPSSSLGTKTYTCNVDHKPSNTKVDKRVESKYGPPCPPCPAPEFLGGPSVFLFPPKPKDTLMISRTPEVTCVVVDVSQEDPEVQFNWYVDGVEVHNAKTKPREEQFNSTYRVVSVLTVLHQDWLNGKEYKCKVSNKGLPSSIEKTISKAKGQPREPRVYTLPPSQEEMTKNQVSLWCLVKGFYPSDIAVEWESNGQPENNYKTTPPVLDSDGSFFLYSRLTVDKSRWQEGNVFSCSVMHEALHNHYTQKSLSLSPGKSGGGSGGGSGGGSGG[letters of about 150 residues not shown]
heavy 2: QVQLVQSGAEVKKPGASVKVSCKASGYTFTGYWMHWVRQAPGQGLEWIGMIHPNSDTTTYNEKFKNRVTMTRDTSISTAYMELSRLRSDDTAVYYCAGTDQAAWFAFWGQGTTVTVSSASTKGPSVFPLAPCSRSTSESTAALGCLVKDYFPEPVTVSWNSGALTSGVHTFPAVLQSSGLYSLSSVVTVPSSSLGTKTYTCNVDHKPSNTKVDKRVESKYGPPCPPCPAPEFLGGPSVFLFPPKPKDTLMISRTPEVTCVVVDVSQEDPEVQFNWYVDGVEVHNAKTKPREEQFNSTYRVVSVLTVLHQDWLNGKEYKCKVSNKGLPSSIEKTISKAKGQPREPQVYTLPPSQEEMTENQVSLSCAVKGFYPSDIAVEWESNGQPENNYKTTPPVLDSDGSFFLVSRLTVDKSRWQEGNVFSCSVMHEALHNHYTQKSLSLSPGKGGGGSGGGGSGGGGSGGGGSELCDDDPPEIPHATFKAMAYKEGTMLNCECKRGFRRIKSGSIYMLCTGNSSHSSWDNQCQCTSSATRNTTKQVTPQPEEQKERKTTEMQSPMQPVDQASLPGHCREPPPWENEATERIYHFVVGQMVYYQCVQGYRALHRGPAESVCKMTHGKTRWTQPQLICTG
notes: Antibody-cytokine fusion with two anti-PD-1 Fab arms; also called fusion protein of the present invention; anti-PD-1 1G1-h70 IgG4 heterodimeric Fc with IL-2 C125S and CD25 L42I
- EC50 (nM), HEK-Blue SEAP reporter, IL-2Rβγ cells, PD-1 (+), 2nd [1]: 0.0392 nM
- EC50 (nM), HEK-Blue SEAP reporter, IL-2Rβγ cells, PD-1 (-), 1st [1]: 7.27 nM
- EC50 (nM), HEK-Blue SEAP reporter, IL-2Rβγ cells, PD-1 (-), 2nd [1]: 12.2 nM
- EC50 (nM), HEK-Blue SEAP reporter, IL-2Rαβγ cells, PD-1 (+), 1st [2]: 0.0348 nM
- EC50 (nM), HEK-Blue SEAP reporter, IL-2Rαβγ cells, PD-1 (+), 2nd [2]: 0.0578 nM
- EC50 (nM), HEK-Blue SEAP reporter, IL-2Rαβγ cells, PD-1 (-), 1st [2]: 0.963 nM
- EC50 (nM), HEK-Blue SEAP reporter, IL-2Rαβγ cells, PD-1 (-), 2nd [2]: 3.08 nM
- Kd [3]: 0.0476 nM
- koff [3]: 2.31e-05 s⁻¹
- kon [3]: 486000 M⁻¹ s⁻¹
- fold difference of the IL-2 response in IL-2Rαβγ cells with against without PD-1 expression (HEK-Blue) [4]: 44 fold
- fold stronger IL-2 response in IL-2Rβγ cells expressing PD-1 than in cells without PD-1 expression (HEK-Blue) [4]: ~340 fold
- binding result [5]: no binding
- EC50 [6]: ~50 nM
- Kd [7]: 0.53 nM
- koff [7]: 7.27e-05 s⁻¹
- kon [7]: 137000 M⁻¹ s⁻¹
